Data on 40 molecules can be found in the antibiotic and cytotoxicity screens of Wong et al. (2023).

The list shows a part of the results.

One experiment has as its system HSkMC. As to the kind of experiment: cytotoxicity call (relative viability < 0.9). Particulars: 10 µM.
For a further experiment, the system named is HepG2. As to the kind of experiment: cytotoxicity call (relative viability < 0.9). Conditions: 10 µM.
The next experiment relates to S. aureus RN4220. As to the kind of experiment: growth inhibition call (relative growth <= 0.2). Conditions: 50 µM.

`COc1ccc(NC(=O)N(C)C[C@@H]2Oc3c(NS(=O)(=O)c4c(C)noc4C)cccc3C(=O)N([C@@H](C)CO)C[C@@H]2C)cc1`: the cytotoxicity call with HSkMC and in the experiment on HepG2 was “inactive” throughout. Moreover, the growth inhibition call with S. aureus RN4220 is “inactive”.
Turning to `C[C@@H]1CN([C@H](C)CO)C(=O)Cc2cc(NC(=O)Cc3ccccc3)ccc2O[C@H]1CN(C)Cc1ccc(Cl)c(Cl)c1`, the cytotoxicity call in the experiment with HSkMC and in the experiment with HepG2 was “inactive” throughout. Moreover, the growth inhibition call in the experiment on S. aureus RN4220 is “inactive”.
`C[C@H]1CC=CC[C@@H](c2cccc(Cl)c2)NC(=O)[C@H](Cc2ccccc2)N(C)C(=O)c2ccccc2O1`: the cytotoxicity call in the experiment with HSkMC and in the experiment with HepG2 was “inactive” throughout. Further, in the experiment with S. aureus RN4220, the growth inhibition call was “inactive”.
As to `C[C@H]1CN([C@@H](C)CO)C(=O)c2cc(NC(=O)Cn3cnnn3)ccc2O[C@H]1CN(C)Cc1ccc(C(F)(F)F)cc1`, the cytotoxicity call in the experiment with HSkMC and in the experiment on HepG2 was “inactive” throughout. Besides, in the experiment on S. aureus RN4220, the growth inhibition call is “inactive”.
For the molecule `COC(=O)/C=c1\sc2n(c1=O)CCN=2`, the cytotoxicity call in the experiment on HSkMC and with HepG2 was “inactive” each time. For the same molecule, in the experiment on S. aureus RN4220, the growth inhibition call was “inactive”.
With `C[C@@H]1CCCCO[C@@H](CN(C)Cc2ccc(C(=O)Nc3ccccc3N)cc2)[C@@H](C)CN([C@H](C)CO)C(=O)c2cc(NC(=O)c3ccccc3)ccc2O1`, the cytotoxicity call in the experiment on HSkMC was “inactive”. Moreover, the cytotoxicity call with HepG2 is “active”. Further, the growth inhibition call in the experiment with S. aureus RN4220 was “inactive”.
As for `Nc1nc(=O)[nH]cc1F`, the cytotoxicity call in the experiment on HSkMC and in the experiment on HepG2 was “inactive” in each case. Moreover, in the experiment with S. aureus RN4220, the growth inhibition call is “inactive”.
As for `Cc1ccccc1S(=O)(=O)N1C[C@@H](O)COC[C@@H]2O[C@@H](CC(=O)NCCc3ccccc3)CC[C@H]21`, the cytotoxicity call in the experiment with HSkMC and in the experiment with HepG2 was “inactive” in each case. Further, in the experiment on S. aureus RN4220, the growth inhibition call was “inactive”.
Take `C/C=C/c1ccc2c(c1)O[C@H](CN(C)C(=O)c1ccc3c(c1)OCO3)[C@H](C)CN([C@@H](C)CO)S2(=O)=O`: the cytotoxicity call in the experiment with HSkMC and in the experiment on HepG2 was “inactive” throughout. In addition, the growth inhibition call in the experiment with S. aureus RN4220 was “inactive”.
As to `CC(C)NC(=O)Nc1ccc2c(c1)CC(=O)N([C@H](C)CO)C[C@H](C)[C@H](CN(C)Cc1ccc(-c3ccccc3)cc1)O2`, the cytotoxicity call with HSkMC and with HepG2 was “inactive” throughout. The growth inhibition call in the experiment on S. aureus RN4220 is “inactive”.
For the molecule `O=c1[nH]cn[nH]1`, the cytotoxicity call in the experiment on HSkMC and in the experiment on HepG2 was “inactive” each time. Besides, the growth inhibition call in the experiment on S. aureus RN4220 was “inactive”.
With `CN(C)CCCNC(=O)C[C@@H]1CC[C@@H]2[C@@H](COc3ccc(NS(C)(=O)=O)cc3C(=O)N2C)O1`, the cytotoxicity call in the experiment on HSkMC and in the experiment on HepG2 was “inactive” throughout. Also, the growth inhibition call in the experiment with S. aureus RN4220 is “inactive”.
Turning to `NC(=O)c1cc[n+](CC2=C(C(=O)O)N3C(=O)[C@@H](NC(=O)Cc4cccs4)[C@H]3SC2)cc1`, the cytotoxicity call with HSkMC and in the experiment on HepG2 was “inactive” each time. For the same molecule, in the experiment with S. aureus RN4220, the growth inhibition call was “active”.
`O=C(O)c1c2ccccc2cc2ccccc12`: the cytotoxicity call in the experiment on HSkMC and in the experiment on HepG2 was “inactive” throughout. The growth inhibition call in the experiment on S. aureus RN4220 was “inactive”.
In the case of `NCc1cnco1`, the cytotoxicity call with HSkMC and in the experiment with HepG2 was “inactive” in each case. In the experiment with S. aureus RN4220, the growth inhibition call is “inactive”.
For the molecule `C[C@@H]1CN([C@H](C)CO)C(=O)c2cc(NS(=O)(=O)c3ccc(Cl)cc3)ccc2O[C@@H](C)CCCCO[C@@H]1CN(C)C(=O)c1ccccc1`, the cytotoxicity call with HSkMC and with HepG2 was “inactive” in each case. For the same molecule, the growth inhibition call in the experiment with S. aureus RN4220 is “inactive”.
As for `C[C@H]1CCCCO[C@@H](CN(C)CC2CCCCC2)[C@@H](C)CN([C@@H](C)CO)C(=O)c2cc(NC(=O)NC3CCCCC3)ccc2O1`, the cytotoxicity call with HSkMC and with HepG2 was “inactive” in each case. Further, in the experiment with S. aureus RN4220, the growth inhibition call was “inactive”.
Take `Cc1ccc(S(=O)(=O)Nc2ccc3c(c2)C(=O)N([C@H](C)CO)C[C@H](C)[C@H](CN(C)Cc2ccc(C(F)(F)F)cc2)OCCCC[C@@H](C)O3)cc1`: the cytotoxicity call in the experiment on HSkMC was “inactive”. In addition, the cytotoxicity call in the experiment on HepG2 is “active”. Also, in the experiment with S. aureus RN4220, the growth inhibition call is “inactive”.
On to `CO[C@@H]1CN(C)C(=O)c2cc(NC(=O)C3CCC3)ccc2OC[C@@H](C)N(C(=O)Nc2ccc(C(F)(F)F)cc2)C[C@H]1C`, for which the cytotoxicity call in the experiment with HSkMC and in the experiment with HepG2 was “inactive” in each case. The growth inhibition call with S. aureus RN4220 was “inactive”.
On to `CO[C@@H]1CN(C)C(=O)c2ccc(NS(=O)(=O)c3cn(C)cn3)cc2OC[C@H](C)N(CCC(F)(F)F)C[C@H]1C`, for which the cytotoxicity call with HSkMC and in the experiment with HepG2 was “inactive” in each case. The growth inhibition call with S. aureus RN4220 was “inactive”.
In the case of `CO[C@@H]1CN(C)C(=O)c2ccc(NC(=O)C3CCCCC3)cc2OC[C@@H](C)N(C(=O)Nc2ccc(C(F)(F)F)cc2)C[C@H]1C`, the cytotoxicity call in the experiment with HSkMC and in the experiment on HepG2 was “inactive” in each case. The growth inhibition call in the experiment on S. aureus RN4220 was “inactive”.
For `C[C@@H]1CCCCO[C@H](CN(C)C(=O)Nc2cccc3ccccc23)[C@@H](C)CN([C@H](C)CO)C(=O)c2cc(NS(=O)(=O)c3ccc(F)cc3)ccc2O1`, in the experiment with HSkMC, the cytotoxicity call was “inactive”. Moreover, the cytotoxicity call in the experiment on HepG2 was “active”. In the experiment with S. aureus RN4220, the growth inhibition call was “inactive”.
As for `CO[C@H]1O[C@H](COS(=O)(=O)O)[C@@H](O[C@@H]2O[C@@H](C(=O)O)[C@@H](OC)[C@H](O)[C@H]2OS(=O)(=O)O)[C@H](O)[C@H]1NS(=O)(=O)O`, the cytotoxicity call with HSkMC and with HepG2 was “inactive” each time. The growth inhibition call in the experiment with S. aureus RN4220 is “inactive”.
Take `COc1ccc(NC(=O)Nc2ccc3c(c2)C(=O)N([C@H](C)CO)C[C@H](C)[C@H](CN(C)Cc2ccc(C(F)(F)F)cc2)OCCCC[C@@H](C)O3)cc1`: the cytotoxicity call in the experiment on HSkMC and in the experiment with HepG2 was “inactive” throughout. For the same molecule, the growth inhibition call in the experiment on S. aureus RN4220 is “inactive”.
Take `[O-]/[N+](=N\O[C@@H]1O[C@H](CO)[C@@H](O)[C@H](O)[C@H]1O)N1CCCC1`: the cytotoxicity call with HSkMC and with HepG2 was “inactive” each time. For the same molecule, the growth inhibition call in the experiment on S. aureus RN4220 was “inactive”.
In the case of `C[C@@H]1CN([C@H](C)CO)C(=O)c2cccc(NC(=O)CCCCCC(=O)Nc3ccccc3N)c2O[C@H]1CN(C)Cc1ccc(-c2ccccc2)cc1`, the cytotoxicity call in the experiment with HSkMC and in the experiment on HepG2 was “inactive” in each case. For the same molecule, the growth inhibition call with S. aureus RN4220 is “inactive”.
As to `Nc1ccc2cc3ccc(N)cc3nc2c1.O=S(=O)(O)O`, the cytotoxicity call with HSkMC and in the experiment on HepG2 was “active” throughout. The growth inhibition call with S. aureus RN4220 was “inactive”.
Turning to `COc1ccc(CN(C)C[C@H]2OCCCC[C@@H](C)Oc3ccc(NS(=O)(=O)c4ccc(F)cc4)cc3C(=O)N([C@H](C)CO)C[C@H]2C)cc1`, the cytotoxicity call with HSkMC and in the experiment on HepG2 was “inactive” throughout. For the same molecule, in the experiment on S. aureus RN4220, the growth inhibition call was “inactive”.
Turning to `O=C(C[C@@H]1C[C@H]2c3cc(NC(=O)c4ccc5c(c4)OCO5)ccc3O[C@H]2[C@@H](CO)O1)NCc1cccnc1`, the cytotoxicity call in the experiment on HSkMC and in the experiment on HepG2 was “inactive” in each case. In addition, in the experiment with S. aureus RN4220, the growth inhibition call was “inactive”.
In the case of `Cc1cc([N+](=O)[O-])nn1CC(=O)N1CCOCC1`, the cytotoxicity call with HSkMC and with HepG2 was “inactive” each time. The growth inhibition call with S. aureus RN4220 is “inactive”.
Regarding `Cc1cc(C(=O)Nc2cccc3c2O[C@@H](CN(C)C(=O)Nc2c(C)noc2C)[C@@H](C)CN([C@H](C)CO)C3=O)n(C)n1`, the cytotoxicity call with HSkMC and in the experiment on HepG2 was “inactive” throughout. The growth inhibition call in the experiment with S. aureus RN4220 is “inactive”.
`C1CNCCN1.CC12CCC3c4ccc(OS(=O)(=O)O)cc4CCC3C1CCC2=O` (stereo not given): the cytotoxicity call in the experiment with HSkMC and in the experiment on HepG2 was “inactive” throughout. Besides, in the experiment on S. aureus RN4220, the growth inhibition call was “inactive”.
For `CN(C)CC(=O)N1[C@@H]2Cn3c(ccc(-c4ccccc4)c3=O)[C@H]1[C@@H](C(=O)N1CCN(C)CC1)[C@@H]2CO`, the cytotoxicity call in the experiment with HSkMC and in the experiment on HepG2 was “inactive” in each case. For the same molecule, in the experiment with S. aureus RN4220, the growth inhibition call is “inactive”.
In the case of `NC1=N[C@H]2CS(=O)(=O)C[C@@H]2S1`, the cytotoxicity call in the experiment with HSkMC and in the experiment with HepG2 was “inactive” each time. The growth inhibition call in the experiment on S. aureus RN4220 is “inactive”.
Take `C[C@@H]1CN([C@@H](C)CO)C(=O)c2cccc(NS(=O)(=O)c3ccccc3)c2O[C@@H]1CN(C)S(=O)(=O)c1cccs1`: the cytotoxicity call in the experiment on HSkMC and with HepG2 was “inactive” throughout. Further, in the experiment on S. aureus RN4220, the growth inhibition call was “inactive”.
For `C[C@@H]1CN([C@H](C)CO)C(=O)c2cccc(NC(=O)c3cnccn3)c2O[C@H]1CN(C)C(=O)NC1CCCCC1`, the cytotoxicity call in the experiment on HSkMC and with HepG2 was “inactive” in each case. For the same molecule, in the experiment with S. aureus RN4220, the growth inhibition call was “inactive”.
Turning to `C[C@@H]1CCCCO[C@@H](CN(C)C(=O)Nc2ccc3c(c2)OCO3)[C@H](C)CN([C@@H](C)CO)C(=O)c2cc(NC(=O)c3ccncc3)ccc2O1`, the cytotoxicity call in the experiment on HSkMC and in the experiment with HepG2 was “inactive” throughout. Besides, the growth inhibition call in the experiment with S. aureus RN4220 is “inactive”.
For the molecule `CNC(=O)C[C@@H]1C[C@@H]2CN(S(=O)(=O)c3cccnc3)C[C@@H]2O1`, the cytotoxicity call in the experiment on HSkMC (human skeletal muscle cells) and in the experiment with HepG2 was “inactive” in each case. Further, the growth inhibition call in the experiment on S. aureus RN4220 was “inactive”.
Regarding `C[C@@H]1CCCCO[C@H](CN(C)C(=O)Nc2ccccc2)[C@H](C)CN([C@@H](C)CO)C(=O)c2cc(NC(=O)Nc3ccc4c(c3)OCO4)ccc2O1`, the cytotoxicity call in the experiment with HSkMC and with HepG2 was “inactive” throughout. In the experiment on S. aureus RN4220, the growth inhibition call is “inactive”.
For the molecule `O=C(NCCO[N+](=O)[O-])c1cccnc1`, the cytotoxicity call with HSkMC and with HepG2 was “inactive” each time. Also, the growth inhibition call with S. aureus RN4220 is “inactive”.
